One molecule from patent publication USRE50631E1, “ROR1 antibody immunoconjugates” (VelosBio Inc., priority 2017, dated 2025) can be followed below.

The subject of one data set is Mino. Description: Cytotoxicity in vitro (CellTiter-Glo viability), Mino. The class given is cell-based, human. Conditions: Mino (MCL). On the technique in general: Cellular ATP, detected with luciferase, serves as a proxy for viable cell number.
A further data set concerns DOHH2. The conditions noted are these: read-out: EC50 (nM), cytotoxicity in vitro; DOHH2 (DLBCL), 96 hours (values marked *). On the procedure:
(§1) ROR1 binding by these conjugates was tested in cell culture to define the potency of various linker-cytotoxic agent combinations. Three different types of cancer cell lines were tested: B-lymphoma cell-lines TMD-8, HBL-1, and DOHH2; triple negative breast cancer cell lines HCC1187, MDA-MB-468, Bt549; and ovarian cancer cell lines A2008, TOV112D, JHOM1, and SKOvr3.
(§2) Cells were cultured in log phase growth and distributed into 96-well plates. Each cell line was plated at a slightly different cell density, ranging from 5×10^3 to 50×10^4 cells/well. Cells in duplicate were incubated with 3-fold serial dilution of a particular immunoconjugate (10, 3.33, 1.11, 0.37, 0.12, 0.041, 0.014, and 0.0045 μM) for 72 hours at 37° C. and 5% CO2. After treatment, cells were incubated with an equal volume of CellTiter-Glo® reagent (Promega Inc.) for 15 minutes at room temperature and viability was determined by a luminometer. Curves and EC50 values were generated in GraphPad Prism using a sigmoidal dose response non-linear regression fit.
Cells were grown and distributed into 96-well plates as described in Example 5. Cells in duplicate were incubated with 3-fold serial dilution of a particular immunoconjugate (660, 220, 73.3, 24.4, 8.14, 2.71, 0.91, and 0.3 nM) for 72 hours at 37° C. and 5% CO2. In some experiments, cells were incubated with an immunoconjugate for 96 hours instead of 72 hours (values highlighted with “*”). After treatment, cell viability was determined as described in Example 5. Cell surface ROR1 expression was assessed by quantitative flow cytometry and ROR1 expression was characterized as MFI>30 or MFI<30 (MFI: mean fluorescent intensity).

In another data set the test system is OCI-Ly19. In words: Cytotoxicity in vitro (CellTiter-Glo viability), OCI-Ly19. The format is cell-based, human. The conditions noted are these: OCI-Ly19 (DLBCL), 72 hours.
A further data set concerns NCI-H929. Description: Cytotoxicity in vitro (CellTiter-Glo viability), NCI-H929. The conditions noted are these: NCI-H929 (MM), 72 hours. The format is cell-based, human.
For the next data set, the system named is HCC1187. In words: Cytotoxicity in vitro (CellTiter-Glo viability), HCC1187. The conditions noted are these: read-out: EC50 (nM), cytotoxicity in vitro; HCC1187 (TNBC), 96 hours (values marked *). The protocol: as §1, §2
Cells were grown and distributed into 96-well plates as described in Example 5. […] After treatment, cell viability was determined as described in Example 5. Cell surface ROR1 expression was assessed by quantitative flow cytometry and ROR1 expression was characterized as MFI>30 or MFI<30 (MFI: mean fluorescent intensity).

Another data set concerns H1975. In words: Cytotoxicity in vitro (CellTiter-Glo viability), H1975. The class given is cell-based, human. The conditions noted are these: H1975 (NSCLC), 72 hours.
In another data set the test system is H460. In words: Cytotoxicity in vitro (CellTiter-Glo viability), H460. The class given is cell-based, human. The conditions noted are these: H460 (NSCLC), 72 hours.
In a further data set the test system is U2OS. The format is cell-based, human. Conditions: U2OS (OS), 72 hours; read-out: EC50 (nM), cytotoxicity in vitro.
The next data set deals with A2780. Description: Cytotoxicity in vitro (CellTiter-Glo viability), A2780. The class given is cell-based, human. The conditions noted are these: A2780 (Ovarian), 72 hours.
In a further data set the test system is ROR1×TCL1 leukemia cells. In words: TCL1×ROR1 CLL mouse model. The format is in vivo. The conditions noted are these: 1, 2, and 5 mg/kg IV weekly, four doses. The protocol:
This study evaluated the activity of ADC-A as compared to vehicle and unconjugated Ab1 in the TCL1×ROR1 CLL mouse model. In the study, ROR1×TCL1 leukemia cells were engrafted into mice via tail vein injection, and the injected mice were randomized into five groups, 8 mice/group. The groups were vehicle control, 10 mg/kg Ab1, and 1, 2, and 5 mg/kg ADC-A. The mice were dosed IV weekly for a total of four doses.

In another data set the test system is BR5015. In words: Human TNBC PDX model BR5015 (low ROR1 expression). The class given is in vivo, mouse. Conditions: for mean TGI: 17 days. An excerpt: Two PDX models displaying different levels of ROR1 expression were selected for this study. ROR1 expression was based on the level of ROR1 staining via IHC of a tissue microarray representing triplicate cores of TNBC PDX models. The mean level of ROR1 expression as assessed by % ROR1-positive cells were 58% and 38% for human TNBC cells BR5011 and BR5015, respectively.
NOD/SCID nude mice were subcutaneously injected with BR5011 or BR5015 cells in the mammary fat pad. When palpable tumors were observed (mean tumor volume approximately 150 mm^3 for BR5011 and approximately 250 mm^3 for BR5015), animals were randomized into three groups. The groups for the BR5011 PDX model were vehicle control, 1 mg/kg ADC-A IV q4d, and 5 mg/kg ADC-A IV q4d. The groups for the BR5015 PDX model were vehicle control, 1 mg/kg ADC-A IV qw, and 5 mg/kg ADC-A IV qw. Mean TGI was calculated as described above.

B1: ADC-A: Ab1 conjugated via MAL (mc)-VC-PAB linker to MMAE (conjugate)
heavy: QVQLQESGPGLVKPSQTLSLTCTVSGYAFTAYNIHWVRQAPGQGLEWMGSFDPYDGGSSYNQKFKDRLTISKDTSKNQVVLTMTNMDPVDTATYYCARGWYYFDYWGHGTLVTVSS[skipping human IgG1 constant region]
light: DIVMTQTPLSLPVTPGEPASISCRASKSISKYLAWYQQKPGQAPRLLIYSGSTLQSGIPPRFSGSGYGTDFTLTINNIESEDAAYYFCQQHDESPYTFGEGTKVEIKRTVAAPSVFIFPPSDEQLKSGTASVVCLLNNFYPREAKVQWKVDNALQSGNSQESVTEQDSKDSTYSLSSTLTLSKADYEKHKVYACEVTHQGLSSPVTKSFNRGEC
As to B1, the EC50 with Mino (72 hours) amounted to 19.5 nM; in the data set with Mino (96 hours (values marked *)), 27.7 nM; in the data set with DOHH2 it was 48.3 nM; in the data set on OCI-Ly19, 199 nM; in the data set with NCI-H929, 179 nM; in the data set on HCC1187, 2.3 nM. Besides, the EC50 in the data set on H1975 was determined as 9.7 nM; with H460, 61.5 nM; with U2OS, 223 nM; with A2780, 64 nM. In addition, in the data set with ROR1×TCL1 leukemia cells, the “leukemic cell tumor burden” value is recorded as “dose-dependent inhibition of leukemic cell tumor burden”. For the same molecule, the entries for the “mean TGI” value with BR5015 (1 mg/kg) and with BR5015 (5 mg/kg) were 22% at 1 mg/kg; and 75.6% at 5 mg/kg, respectively. For the same molecule, the tumor response entry in the data set with BR5015 (1 or 5 mg/kg ADC-A) is reported as “Tumor regression was observed”.
